Measured values: PubChem BioAssay AID1345083 (National Center for Advancing Translational Sciences (NCATS), 2018)
The campaign covered roughly 94,000 compounds. About 6,200 (6.6%) were called active. Inconclusive means that the source gave no clear call. Such entries were picked first, then a sample of the others. The call rests on the fitted dose curve; in most records, active means well fitted inhibition curve with a large enough effect; inconclusive means small, poorly fitted or top-dose-only effect; inactive means flat fitted curve, though single readings scatter. A potency beside an inconclusive call is a rough fit, not a confirmed value.
On the % scale 0 is the no-effect control and ±100 the full control effect; potency means the concentration at half of the fitted maximal effect; tags describe the fitted curve by direction and shape.

Experiment: Cytotoxic Profiling in HEK 293 Cell Line of Diverse Libraries Using Quantitative High-Throughput Screening; further: nearly all actives have a fitted effect of over 60% in size
Conditions: HEK 293 viability, ATP luminescence (CellTiter-Glo), 48-72 h; activity change, negative = cytotoxicity: at 115 µM (top of the series) unless noted; series mostly up to 115 µM
Summary of the method: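 CellTiter-Glo luminescence (cellular ATP) was read after 48 or 72 hr of compound exposure at 37 degree Celsius. Cells were HEK 293 plated at 250 cells/well.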
With `O=C(Cn1cccc1-c1nc(-c2ccc3c(c2)OCO3)no1)Nc1ccc(F)c(F)c1` the “activity change, negative = cytotoxicity” value was inactive: -10.2%.
With `CN1CCC(O)(CCn2cnc(-c3ccccc3)c2-c2ccsc2)CC1` the Potency was inconclusive: 89.1 µM [inhibitor, single point].
In the case of `COc1cc(=O)n2c(c1C(=O)Nc1cc(Cl)ccc1F)CCCC2`, the “activity change, negative = cytotoxicity” value is reported as inactive: 2.63%.
For `Clc1ccc(C2Cn3nnc(-c4noc(C5(c6ccccc6)CC5)n4)c3CO2)cc1` (stereo not given), the “activity change, negative = cytotoxicity” value was inactive: -4.29%.
With `COc1cccc(CC(=O)Nc2ccc3c(c2)CN(CCc2ccccc2)C(=O)C(C)O3)c1` (stereo not given) the Potency was inconclusive: 35.5 µM [inhibitor, partial curve, poor fit].
For `CC(=O)N1CCCCC1c1nc(CCOc2ccc(F)cc2)no1` (stereo not given), the “outcome” value was “inactive”.
With `O=c1ncn(Cc2ccccc2)c2ccc(-c3ccc(F)cc3)nc12` the “activity change, negative = cytotoxicity” value was inactive: -33.5% [at 172 µM].
In the case of `CNC(=O)c1cc(C2CC2)nc2c1c(C1CCN(C(=O)c3ccccc3Cl)C1)nn2C` (stereo not given), the “activity change, negative = cytotoxicity” value is reported as inactive: -17.9%.
In the case of `Cc1cccc(OCC(=O)c2ccc3c(c2)N(CC(=O)Nc2ccccc2)C(=O)CO3)c1`, the Potency is reported as inconclusive: 89.1 µM [inhibitor, single point].
With `O=C(CCc1ccc2c(c1)CCO2)Nc1ccc2c(c1)C(=O)N1CCC[C@H]1C(=O)N2` the Potency was inconclusive: 100 µM [inhibitor, single point].
For `COCCNc1ncc(-c2ccsc2)c2c1OCC2`, the Potency was inconclusive: 126 µM [inhibitor, partial curve].
In the case of `O=C(Cn1nc2n(c1=O)CCCC2)Nc1ccc2c(c1)OCCO2`, the “activity change, negative = cytotoxicity” value is reported as inactive: 12.7%.
For `COCCOC1CCN(S(=O)(=O)c2cccc(OC)c2)CC1`, the “activity change, negative = cytotoxicity” value was inactive: 7.23%.
For `CNC(=O)[C@@H](Cc1ccccc1)N1CCC[C@H]1C(=O)NC1CC1`, the “activity change, negative = cytotoxicity” value was inactive: -6% [at 172 µM].
In the case of `O=C(Nc1cccnc1)c1cnc2c(c1)N(Cc1ccccc1)CCC2`, the Potency is reported as inconclusive: 8.91 µM [inhibitor, full curve, poor fit].
In the case of `O=c1c2nc(OCc3ccc(C(F)(F)F)cc3)ccc2ncn1C1CC1`, the Potency is reported as inconclusive: 89.1 µM [inhibitor, partial curve, poor fit].
For `COCC(=O)NC[C@@H]1C=C(C)[C@H](Cc2nc3ccc(Cl)cc3[nH]2)C[C@H]1C(C)C`, the Potency was inconclusive: 70.8 µM [inhibitor, partial curve, poor fit].
For `CC(=O)Nc1ccc(CN2CCC(c3nc4ccc(F)cc4c(=O)[nH]3)CC2)cc1`, the Potency was inconclusive: 79.4 µM [inhibitor, partial curve, poor fit].
In the case of `CSc1ccc(CNC(=O)c2cc3c(s2)CCN(C(=O)c2ccccc2)C3)cc1`, the Potency is reported as inconclusive: 12.6 µM [inhibitor, full curve, poor fit].
For `C[S+](=O)([O-])N1CC2(CCN(Cc3ccc(Cl)cc3)CC2)Cc2ccccc21`, the Potency was inconclusive: 56.2 µM [inhibitor, partial curve, poor fit].
With `COCCNC(=O)c1ccc2nnc(-c3ccccc3OC)n2c1` the “activity change, negative = cytotoxicity” value was inactive: -9.23% [at 172 µM].
In the case of `Cc1ccsc1-c1[nH]nc2ncc(-c3ccccc3)nc12`, the Potency is reported as inconclusive: 126 µM [inhibitor, partial curve, poor fit].
With `O=C(O)[C@@H]1CN(Cc2ccccc2)C[C@@H]1C(=O)N1CCc2ccccc21` the “outcome” value was “inactive”.
In the case of `COc1ccc(-c2cccc(C(=O)N3CCC(NC(=O)c4c(C)noc4C)CC3)c2)nn1`, the “activity change, negative = cytotoxicity” value is reported as inactive: -17.1%.
In the case of `COCCC(=O)N1CC(c2nnc(-c3ccc(C)cc3)o2)C2(CCOCC2)C1` (stereo not given), the “activity change, negative = cytotoxicity” value is reported as inactive: -14.6%.
With `Cn1cc(CCCC(=O)Nc2ccc3c(c2)C(=O)N2CCC[C@H]2C(=O)N3)c2ccccc21` the Potency was inconclusive: 89.1 µM [inhibitor, single point].
With `Cc1nc(-c2ccccc2)n(Cc2ccc(F)c(F)c2)c(=O)c1CCO` the Potency was inconclusive: 50.1 µM [inhibitor, partial curve, poor fit].
In the case of `CN(C)C[C@@H]1CN(c2ncccn2)C[C@H]1NC(=O)CCCc1ccccc1`, the “activity change, negative = cytotoxicity” value is reported as inactive: -8.73%.
For `CCn1nccc1C(=O)N1C[C@@H](Oc2ccccc2)C[C@@H]1C(=O)NC`, the “activity change, negative = cytotoxicity” value was inactive: 4.13%.
With `CC(=O)Nc1cccc(-c2ccnc(-c3nnc(C)n3-c3ccccc3)c2)c1` the Potency was inconclusive: 100 µM [inhibitor, partial curve].
With `O=C(NCC(=O)N1CCC(c2ccccc2)CC1)c1ccc(-c2cccc(C(F)(F)F)c2)cc1` the “activity change, negative = cytotoxicity” value was inactive: -41.8%.
In the case of `FC1(c2nc(-c3ccccc3)no2)CCN(C2CCOCC2)CC1`, the Potency is reported as inconclusive: 89.1 µM [inhibitor, partial curve, poor fit].
In the case of `COCCNC(=O)[C@H]1C[C@H](Oc2ccccc2)CN1Cc1cccn1C`, the Potency is reported as inconclusive: 89.1 µM [inhibitor, single point].
With `NC(=O)[C@@H]1CN(C2CCSCC2)C[C@H]1COc1ccccc1` the “outcome” value was “inactive”.
With `COC[C@@H]1[C@H](C(=O)NCc2ccccc2OC)CCC(=O)N1C` the “outcome” value was “inactive”.
In the case of `COC(=O)C1=C(C)N=C2SC=C(CC(=O)Nc3ccc(OC)cc3)N2C1c1cccc(OC)c1` (stereo not given), the Potency is reported as inconclusive: 50.1 µM [inhibitor, partial curve, poor fit].
For `Cc1noc(C)c1-c1cc2c(cc(C)n2CCN(C)C)c(-c2ccc(CO)cc2)n1`, the Potency was active: 79.4 µM.
In the case of `COc1ccc2c(c1)CN(C1CCN(C)CC1)CC[C@H]1COC(=O)N21`, the “activity change, negative = cytotoxicity” value is reported as inactive: -11.2% [at 172 µM].
For `O=C(Nc1ccccc1)N1CCCC1C(=O)N1CCCC1c1nc2ccncc2[nH]1` (stereo not given), the “outcome” value was “inactive”.
For `O=C(NCc1ccc(F)cc1F)c1nnn2c1COC(c1ccc(Cl)cc1)C2` (stereo not given), the Potency was inconclusive: 28.2 µM [inhibitor, single point].
For `CCc1[nH]c2c(CNC(=O)C3(C)CCCCO3)cc(F)cc2c1C` (stereo not given), the Potency was inconclusive: 50.1 µM [inhibitor, partial curve, poor fit].
For `CCN1c2cc(C(=O)Nc3ccccc3OC)ccc2C(=O)N2CCCCCC21` (stereo not given), the Potency was inconclusive: 44.7 µM [inhibitor, partial curve, poor fit].
In the case of `CN1CCCN(C(=O)c2ccccc2)c2ccccc21`, the “activity change, negative = cytotoxicity” value is reported as inactive: -19.7%.
For `CC1CCN(CC2CCCCCN2C(=O)Nc2ccc3c(c2)OCCO3)CC1` (stereo not given), the Potency was inconclusive: 20 µM [inhibitor, full curve, poor fit].
For `COc1ccc(Cn2c(=O)c(C(=O)NCc3ccc(Cl)cc3)nc3cccnc32)cc1`, the Potency was inconclusive: 44.7 µM [inhibitor, partial curve, poor fit].
For `O=C(c1ccc(CN2C(=O)NC3(CCOCC3)C2=O)cc1)N1CCSCC1`, the “activity change, negative = cytotoxicity” value was inactive: 5.36%.
With `CN(C)C(=O)c1cccnc1OC1CCN(C(=O)c2cccs2)C1` (stereo not given) the “activity change, negative = cytotoxicity” value was inactive: -1.58%.
For `O=C(Nc1ccc(F)cc1F)c1cc(-c2ccc[nH]2)n[nH]1`, the Potency was inconclusive: 89.1 µM [inhibitor, single point].
With `COc1ccc(CC(=O)Nc2cc(-c3ccncc3)nn2-c2ccccc2)cc1` the Potency was inconclusive: 56.2 µM [inhibitor, partial curve, poor fit].
In the case of `O=C(c1ccccc1Cl)N1CCN(Cc2ccccc2-c2cccnc2)CC1`, the Potency is reported as inconclusive: 56.2 µM [inhibitor, partial curve, poor fit].
With `COc1ccc(-c2ccc3nc(-c4ccccc4)oc3c2)c(OC)c1OC` the Potency was active: 44.7 µM.
For `Cc1ccc2oc([C@H]3CCN(Cc4ccccn4)C3)nc2c1`, the Potency was inconclusive: 100 µM [inhibitor, partial curve, poor fit].
In the case of `Cc1cc(C)c(CNC(=O)c2nc(-c3cccc(O)c3)cc3c2ccn3C)c(=O)[nH]1`, the Potency is reported as inconclusive: 44.7 µM [inhibitor, full curve].
For `CCc1ccc(CNC(=O)c2cc3n(n2)CC(c2ccc4c(c2)OCO4)OC3)cc1` (stereo not given), the Potency was inconclusive: 79.4 µM [inhibitor, partial curve, poor fit].
With `Cn1cc(-c2cccc(Cl)c2)c2nc(CN3CC[S+](=O)([O-])CC3)cn2c1=O` the “activity change, negative = cytotoxicity” value was inactive: -29.9% [at 172 µM].
With `O=C(c1cc(Cl)ccc1F)N1CCC(n2cc(-c3nc(C4CC4)no3)nn2)C1` (stereo not given) the Potency was inconclusive: 50.1 µM [inhibitor, partial curve, poor fit].
For `CC1CCN(CC2CCCN(C(=O)NC3CCCCC3)CC2)CC1` (stereo not given), the “activity change, negative = cytotoxicity” value was inactive: -14.4%.
With `CC(=O)Nc1ccc(CN2CCN(c3cc(Cl)ncn3)C(=O)C2)cc1` the Potency was active: 10 µM.
With `CN1CCN(c2cc(=O)c3ccnc(-c4cccc(CO)c4)c3o2)CC1` the “activity change, negative = cytotoxicity” value was inactive: -6.48% [at 172 µM].
In the case of `COc1ccc(C(=O)N[C@@H]2CN(C(=O)NCc3ccccc3)CCC[C@H]2O)cc1`, the “activity change, negative = cytotoxicity” value is reported as inactive: -31.1% [at 172 µM].
With `CCN1c2cc(C(=O)Nc3cc(C)ccc3C)ccc2C(=O)N2CCCCCC21` (stereo not given) the Potency was inconclusive: 31.6 µM [inhibitor, partial curve].
With `COc1ccccc1Cn1c(=O)c(C(=O)N2CCN(C(=O)c3ccc(Cl)nc3)CC2)nc2cccnc21` the “activity change, negative = cytotoxicity” value was inactive: -1.84%.
With `CN1C(=O)C2(CCN(S(=O)(=O)c3ccc(F)cc3)C2)c2ccccc21` (stereo not given) the Potency was inconclusive: 89.1 µM [inhibitor, single point].
For `CCN(CC)[C@H]1[C@@H]2OC[C@@H](O2)[C@@H](NCC2CCCCC2)[C@@H]1O`, the “activity change, negative = cytotoxicity” value was inactive: -24.7% [at 172 µM].
In the case of `COC(=O)N(C)Cc1cccc(N2CCN(C(C)c3ccccc3)CC2)c1F` (stereo not given), the Potency is reported as inconclusive: 56.2 µM [inhibitor, partial curve, poor fit].
In the case of `COCCn1c(=O)c(C(=O)NCc2cccc(OC)c2)nc2cccnc21`, the “activity change, negative = cytotoxicity” value is reported as inactive: -15%.
In the case of `O=C(NCc1cccc(C(F)(F)F)c1)c1ccc2nnc(-c3ccc(F)cc3)n2c1`, the Potency is reported as inconclusive: 44.7 µM [inhibitor, partial curve, poor fit].
In the case of `CC(C)CN1CCC(N2CC(Oc3cccc(C(=O)N4CCCC4)c3)C2)CC1`, the “activity change, negative = cytotoxicity” value is reported as inactive: -5.08%.
In the case of `O=C(Cc1cccc(F)c1)N1CC(CNC(=O)N2CCCC2)C2(CCOCC2)C1` (stereo not given), the “activity change, negative = cytotoxicity” value is reported as inactive: -9.03%.
In the case of `O=C(N1CCN(C/C=C/c2ccccc2)CC1)C12CNCC1CNC2` (stereo not given), the Potency is reported as inconclusive: 8.91 µM [inhibitor, full curve, poor fit].
